# Over roughly 33,000 sequences, “E-score (-0.5 to 0.5)” has its median near -0.041; the highest 2% begin near 0.37. This is one part of the list.
# Molecular target: T1, Ecm22 (UniProt Q05958)
# T1 sequence: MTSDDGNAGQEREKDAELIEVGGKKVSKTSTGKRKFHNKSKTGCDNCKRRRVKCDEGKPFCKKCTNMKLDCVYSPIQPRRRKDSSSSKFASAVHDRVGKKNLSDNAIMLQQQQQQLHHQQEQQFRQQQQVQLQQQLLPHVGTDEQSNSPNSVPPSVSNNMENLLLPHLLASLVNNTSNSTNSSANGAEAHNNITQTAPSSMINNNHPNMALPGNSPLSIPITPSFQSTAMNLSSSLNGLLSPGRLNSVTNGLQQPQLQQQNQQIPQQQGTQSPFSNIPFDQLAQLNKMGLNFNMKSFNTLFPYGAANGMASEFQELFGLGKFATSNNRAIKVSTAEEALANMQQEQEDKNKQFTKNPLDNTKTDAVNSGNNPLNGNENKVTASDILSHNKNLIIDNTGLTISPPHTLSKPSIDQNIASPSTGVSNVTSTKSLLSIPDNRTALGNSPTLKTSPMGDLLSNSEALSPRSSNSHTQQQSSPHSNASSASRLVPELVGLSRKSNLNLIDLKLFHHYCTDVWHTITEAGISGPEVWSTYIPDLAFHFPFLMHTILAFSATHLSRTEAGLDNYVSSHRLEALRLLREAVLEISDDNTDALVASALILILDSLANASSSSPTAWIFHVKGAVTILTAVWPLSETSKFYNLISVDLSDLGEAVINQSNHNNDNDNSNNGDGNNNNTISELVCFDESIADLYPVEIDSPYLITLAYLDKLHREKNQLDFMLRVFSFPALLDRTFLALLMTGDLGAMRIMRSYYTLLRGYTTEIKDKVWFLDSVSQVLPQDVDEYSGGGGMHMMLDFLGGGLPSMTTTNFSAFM
# Assay: PBM E-score (8-mer binding enrichment) (E-score (-0.5 to 0.5)); higher = stronger / more preferred TF binding; most listed sequences are background and not binding sites
# Details: protein concentration: 200 nM; construct: GST-full length
# Summary of the method: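 Detection of bound protein used fluorescent anti-GST, with scans normalised by masliner. The proteins were GST-tagged yeast transcription factors applied at about 100-200 nM to universal all-10-mer Agilent arrays made double-stranded by primer extension. Each ungapped eight-base word, pooled with its reverse complement, was scored with an E-score from the Universal PBM Analysis Suite.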
row,Sequence,PBM E-score
1,CGCAAGCG,0.142
2,CCTCAGGA,-0.184
3,ACTGGGTG,-0.237
4,GCTCGCAA,0.244
5,AAAACCCA,-0.0261
6,CCTTCTGA,-0.154
7,ATCTAGAA,-0.0135
8,ACTCTTTC,-0.196
9,CGCAGGGA,-0.294
10,CAGGCCTG,-0.226
11,ACTCGATG,0.115
12,ATAAGCCC,-0.136
13,GGATACGA,0.45
14,ATGATAAA,0.113
15,CTTCGTAA,0.413
16,CCTAATAA,0.1
17,CATCTAGG,-0.229
18,CCCCAAAA,-0.0131
19,ATATACGG,0.441
20,GTGGGTCA,-0.308
21,AAGGCAGT,-0.148
22,AAGGCATA,-0.135

row,Sequence,PBM E-score
1,AAGCCGTA,0.247
2,GAATAGAA,-0.00471
3,AGACCGAA,0.172
4,CTGCTAAG,-0.29
5,ACGCATGG,-0.0301
6,GATATCGC,0.0915
7,ACGTACGG,0.362
8,GCACACGA,0.134
9,CGAGGGCA,0.215
10,ATCGCTAA,0.2
11,ACTTACCG,0.182
12,GGAGGCAC,-0.238
13,CACCTGTA,-0.164
14,ATACAAAG,0.0488
15,ACACAACG,0.141
16,ACTAGACC,-0.111
17,AACTCGCC,0.074
18,ATCGGTGC,-0.131
19,AATCATTC,0.0339
20,AGGCACAG,-0.269
21,ATCGGTAA,0.277
22,AGCCTTGA,-0.137

row,Sequence,PBM E-score
1,CACGGGCG,-0.186
2,CTAGGGTC,-0.139
3,AGTTGCTA,0.0721
4,CAGACACA,-0.15
5,CGAATAAA,0.187
6,CGAGGCAA,0.197
7,TCACTCGA,0.163
8,CGTGACGC,0.178
9,CAAACCCC,-0.204
10,AATCAGCT,-0.187
11,AACAGCGT,-0.0225
12,GTCTCCTA,-0.166
13,TGCTAGAA,-0.136
14,CTGAGGCC,-0.166
15,GAATAAGC,-0.183
16,ACAAAGAA,0.112
17,GATAATGC,0.0381
18,ATTAACTG,0.145
19,GATCGGAA,0.108
20,AAATATCG,0.229
21,CGCTGGGA,-0.0454
22,ACCAAGGT,-0.083

row,Sequence,PBM E-score
1,TCTGTAAA,-0.0281
2,ACCATCCT,-0.12
3,CACCCCAC,-0.202
4,AGTGTTGG,0.00553
5,CGAGTACG,0.392
6,CAACTACG,0.0594
7,GAGGCGCC,0.0193
8,CGTTGTTA,0.0522
9,TAGGAAGA,-0.189
10,ACGGATTC,0.201
11,TATGCGGA,0.133
12,CGCACGCA,0.141
13,GTATTTCA,0.0746
14,CAGGGACA,-0.0856
15,AGCTCGGA,0.135
16,GCTGGCCA,-0.297
17,CCTACTTA,-0.287
18,ACAGACAA,0.182
19,AAGTCTCT,-0.212
20,AGACGGGC,0.0127

# From the supplement of paper PMC3334620
